According to the RNAGym collection of RNA variant scans (doi:10.1093/nar/gkz1192):
Read counts are not given, so values of variants with three or more changes are uncertain.

B1: CPEB3 Ribozyme (parent)
chain: UAACAGGGGGCCACAGCAGAAGCGUUCACGUCGCAGCCCCUGUCAGAUUCUGGUGAAUCUGCGAAUUCUGCUGUAUAUCUC

Variants of: B1
Assay: self-cleavage, relative activity (ratio to wild type); higher = more cleavage; in vitro, sequencing
In short: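 Relative activity compares each variant's cleaved/total read fraction with that of the unmutated ribozyme. To get these fractions, barcoded CPEB3 ribozyme libraries from rounds of error-prone PCR were transcribed with T7 RNA polymerase for 5 hours at 37°C and then given 15 min of DNase I treatment before EDTA was added. The RNAs were reverse transcribed with template switching and sequenced on Illumina, and DNA sequencing linked barcodes to variants. A minimum of 5 reads applied, and three batches were averaged.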

Question: Which self-cleavage does the source give for A15G U31A A35G A57G here?
Answer: The self-cleavage was 1.19.

Question: Which self-cleavage does the source give for A15G U31A A35G A64G here?
Answer: The self-cleavage was 1.25.

Question: Which self-cleavage does the source give for A15G U31A A57G A65G U66C U72C U80C here?
Answer: The self-cleavage was 1.18.

Question: Which self-cleavage does the source give for A15G U31A G33A U78C here?
Answer: Its self-cleavage is 0.15.

Question: Which self-cleavage does the source give for A15G U31A G36A A64G here?
Answer: Its self-cleavage is 0.45.

Question: With A15G U31A U41A A47G A56G U69C as the variant, how does the self-cleavage read?
Answer: Its self-cleavage is 0.12.

Question: For A15G U31A U41C U54A A56C U69C, which self-cleavage is on record?
Answer: The self-cleavage was 0.17.

Question: Which self-cleavage does the source give for A15G U31A U43A here?
Answer: The self-cleavage was 0.43.

Question: For A15G U31A U43C U51C A57C, which self-cleavage is on record?
Answer: Its self-cleavage is 0.09.

Question: Which self-cleavage does the source give for A15G U31C A35G U69A U72C U80C here?
Answer: Its self-cleavage is 0.12.

Question: Which self-cleavage does the source give for A15G U31C A35G U72C here?
Answer: The self-cleavage was 0.58.

Question: With A15G U31C A35G U80G as the variant, how does the self-cleavage read?
Answer: The self-cleavage was 0.47.

Question: With A15G U31C A45C U49C U72C U78A as the variant, how does the self-cleavage read?
Answer: Its self-cleavage is 0.2.

Question: For A15G U31C A45G, which self-cleavage is on record?
Answer: The self-cleavage was 0.26.

Question: For A15G U31C A56G, which self-cleavage is on record?
Answer: The self-cleavage was 0.17.

Question: Which self-cleavage does the source give for A15G U31C A64G here?
Answer: The self-cleavage was 0.14.

Question: Which self-cleavage does the source give for A15G U31C A65U here?
Answer: The self-cleavage was 0.16.

Question: For A15G U31C A77G, which self-cleavage is on record?
Answer: Its self-cleavage is 0.2.

Question: For A15G U31C C32G, which self-cleavage is on record?
Answer: The self-cleavage was 0.26.

Question: For A15G U31C C79A, which self-cleavage is on record?
Answer: The self-cleavage was 0.53.

Question: Which self-cleavage does the source give for A15G U31C G33A A56U U66C here?
Answer: The self-cleavage was 0.09.

Question: With A15G U31C U41C A57C U60C C68U C79A as the variant, how does the self-cleavage read?
Answer: The self-cleavage was 0.08.

Question: With A15G U31C U41C U66C as the variant, how does the self-cleavage read?
Answer: Its self-cleavage is 0.35.

Question: Which self-cleavage does the source give for A15G U31C U41C U72C here?
Answer: Its self-cleavage is 0.7.

Question: Which self-cleavage does the source give for A15G U31C U43A U48A C50A here?
Answer: Its self-cleavage is 0.06.

Question: Which self-cleavage does the source give for A15G U31C U43G U69C G70A here?
Answer: Its self-cleavage is 0.15.

Question: With A15G U31C U48A A65G U66C U67C as the variant, how does the self-cleavage read?
Answer: The self-cleavage was 0.

Question: For A15G U31C U48C U60C C62A, which self-cleavage is on record?
Answer: Its self-cleavage is 0.23.

Question: Which self-cleavage does the source give for A15G U31C U54C A77U here?
Answer: Its self-cleavage is 0.31.

Question: With A15G U31C U66G U78A as the variant, how does the self-cleavage read?
Answer: The self-cleavage was 0.16.

Question: With A15G U31C U67A as the variant, how does the self-cleavage read?
Answer: Its self-cleavage is 0.21.

Question: Which self-cleavage does the source give for A15G U31C U67C here?
Answer: Its self-cleavage is 0.14.

Question: Which self-cleavage does the source give for A15G U31C U69A here?
Answer: Its self-cleavage is 0.1.

Question: Which self-cleavage does the source give for A15G U31G U49C here?
Answer: The self-cleavage was 0.17.

Question: With A15G U31G U60A as the variant, how does the self-cleavage read?
Answer: Its self-cleavage is 0.28.

Question: With A15G U41A A45G U49A U54C U78C as the variant, how does the self-cleavage read?
Answer: The self-cleavage was 0.06.

Question: For A15G U41A A56U, which self-cleavage is on record?
Answer: Its self-cleavage is 0.07.

Question: Which self-cleavage does the source give for A15G U41A A57G here?
Answer: The self-cleavage was 0.17.

Question: Which self-cleavage does the source give for A15G U41A G52U A64G A65G U66C here?
Answer: The self-cleavage was 0.05.

Question: Which self-cleavage does the source give for A15G U41A G61U U67C U80A here?
Answer: Its self-cleavage is 0.13.

Question: Which self-cleavage does the source give for A15G U41A U48C here?
Answer: The self-cleavage was 0.22.

Question: With A15G U41A U49C A56U U72C as the variant, how does the self-cleavage read?
Answer: Its self-cleavage is 0.21.

Question: With A15G U41A U49C A64U U80G as the variant, how does the self-cleavage read?
Answer: The self-cleavage was 0.37.

Question: Which self-cleavage does the source give for A15G U41A U54A A64U U67A U69C here?
Answer: Its self-cleavage is 0.

Question: With A15G U41A U54C as the variant, how does the self-cleavage read?
Answer: The self-cleavage was 0.32.

Question: Which self-cleavage does the source give for A15G U41A U80C here?
Answer: The self-cleavage was 0.28.

Question: Which self-cleavage does the source give for A15G U41C A45C U78C here?
Answer: Its self-cleavage is 0.14.

Question: For A15G U41C A64U U72G U78A, which self-cleavage is on record?
Answer: Its self-cleavage is 0.21.

Question: With A15G U41C A75G A77G as the variant, how does the self-cleavage read?
Answer: Its self-cleavage is 0.71.

Question: Which self-cleavage does the source give for A15G U41C U43A A75G A77G here?
Answer: The self-cleavage was 0.51.

Question: Which self-cleavage does the source give for A15G U41C U43C G73A here?
Answer: The self-cleavage was 0.51.

Question: For A15G U41C U48C A65G C71U, which self-cleavage is on record?
Answer: The self-cleavage was 0.16.

Question: For A15G U41C U49A U51A, which self-cleavage is on record?
Answer: The self-cleavage was 0.46.

Question: With A15G U41C U49C U60C as the variant, how does the self-cleavage read?
Answer: Its self-cleavage is 0.07.

Question: With A15G U41C U51A A56U U60C as the variant, how does the self-cleavage read?
Answer: The self-cleavage was 0.44.

Question: With A15G U41C U51C A56U G61A A65G as the variant, how does the self-cleavage read?
Answer: The self-cleavage was 0.29.

Question: For A15G U41C U54A, which self-cleavage is on record?
Answer: Its self-cleavage is 1.07.

Question: For A15G U41C U54A C81A, which self-cleavage is on record?
Answer: Its self-cleavage is 1.03.

Question: With A15G U41C U54A G70U U72A as the variant, how does the self-cleavage read?
Answer: Its self-cleavage is 0.17.

Question: With A15G U41C U54C as the variant, how does the self-cleavage read?
Answer: The self-cleavage was 0.6.

Question: Which self-cleavage does the source give for A15G U41C U66C here?
Answer: Its self-cleavage is 0.31.

Question: With A15G U41C U67A as the variant, how does the self-cleavage read?
Answer: The self-cleavage was 0.3.

Question: With A15G U41C U78C as the variant, how does the self-cleavage read?
Answer: Its self-cleavage is 1.08.

Question: Which self-cleavage does the source give for A15G U41C U80G here?
Answer: Its self-cleavage is 1.03.

Question: With A15G U41G U54C A57G as the variant, how does the self-cleavage read?
Answer: Its self-cleavage is 0.28.

Question: With A15G U41G U60A as the variant, how does the self-cleavage read?
Answer: The self-cleavage was 0.04.

Question: Which self-cleavage does the source give for A15G U43A A45G A47U here?
Answer: Its self-cleavage is 0.48.

Question: With A15G U43A A64C G70A U72C as the variant, how does the self-cleavage read?
Answer: Its self-cleavage is 0.35.

Question: Which self-cleavage does the source give for A15G U43A C62G here?
Answer: The self-cleavage was 0.23.

Question: For A15G U43A G52A U69C, which self-cleavage is on record?
Answer: Its self-cleavage is 0.19.

Question: With A15G U43A G73U as the variant, how does the self-cleavage read?
Answer: The self-cleavage was 1.23.

Question: With A15G U43A U48C C59U A64G U72A as the variant, how does the self-cleavage read?
Answer: Its self-cleavage is 0.13.

Question: Which self-cleavage does the source give for A15G U43A U54C here?
Answer: Its self-cleavage is 0.38.

Question: With A15G U43A U60A A65G as the variant, how does the self-cleavage read?
Answer: The self-cleavage was 0.09.

Question: Which self-cleavage does the source give for A15G U43A U74C here?
Answer: Its self-cleavage is 1.09.

Question: For A15G U43C A45U U49A, which self-cleavage is on record?
Answer: The self-cleavage was 0.16.

Question: For A15G U43C A56G, which self-cleavage is on record?
Answer: Its self-cleavage is 0.37.

Question: For A15G U43C C62U U69C U72C, which self-cleavage is on record?
Answer: Its self-cleavage is 0.06.

Question: For A15G U43C U48A U60A U67C, which self-cleavage is on record?
Answer: Its self-cleavage is 0.1.

Question: Which self-cleavage does the source give for A15G U43C U48C here?
Answer: The self-cleavage was 0.33.

Question: For A15G U43C U49C G52A, which self-cleavage is on record?
Answer: Its self-cleavage is 0.1.

Question: Which self-cleavage does the source give for A15G U43C U49C U78A here?
Answer: The self-cleavage was 0.06.

Question: Which self-cleavage does the source give for A15G U43C U54A here?
Answer: Its self-cleavage is 0.56.
